Screen size: about 310,000 compounds; about 2,200 (0.71%) showed an effect of 50% or more. The effect is printed as a negative number. The list shows a part of the results.
molecular target: human ether-à-go-go-related gene (hERG) potassium channel (human, UniProt Q12809); experiment: primary screen, population patch clamp on CHO cells stably expressing hERG
Sequence (Q12809 whole entry, looked up): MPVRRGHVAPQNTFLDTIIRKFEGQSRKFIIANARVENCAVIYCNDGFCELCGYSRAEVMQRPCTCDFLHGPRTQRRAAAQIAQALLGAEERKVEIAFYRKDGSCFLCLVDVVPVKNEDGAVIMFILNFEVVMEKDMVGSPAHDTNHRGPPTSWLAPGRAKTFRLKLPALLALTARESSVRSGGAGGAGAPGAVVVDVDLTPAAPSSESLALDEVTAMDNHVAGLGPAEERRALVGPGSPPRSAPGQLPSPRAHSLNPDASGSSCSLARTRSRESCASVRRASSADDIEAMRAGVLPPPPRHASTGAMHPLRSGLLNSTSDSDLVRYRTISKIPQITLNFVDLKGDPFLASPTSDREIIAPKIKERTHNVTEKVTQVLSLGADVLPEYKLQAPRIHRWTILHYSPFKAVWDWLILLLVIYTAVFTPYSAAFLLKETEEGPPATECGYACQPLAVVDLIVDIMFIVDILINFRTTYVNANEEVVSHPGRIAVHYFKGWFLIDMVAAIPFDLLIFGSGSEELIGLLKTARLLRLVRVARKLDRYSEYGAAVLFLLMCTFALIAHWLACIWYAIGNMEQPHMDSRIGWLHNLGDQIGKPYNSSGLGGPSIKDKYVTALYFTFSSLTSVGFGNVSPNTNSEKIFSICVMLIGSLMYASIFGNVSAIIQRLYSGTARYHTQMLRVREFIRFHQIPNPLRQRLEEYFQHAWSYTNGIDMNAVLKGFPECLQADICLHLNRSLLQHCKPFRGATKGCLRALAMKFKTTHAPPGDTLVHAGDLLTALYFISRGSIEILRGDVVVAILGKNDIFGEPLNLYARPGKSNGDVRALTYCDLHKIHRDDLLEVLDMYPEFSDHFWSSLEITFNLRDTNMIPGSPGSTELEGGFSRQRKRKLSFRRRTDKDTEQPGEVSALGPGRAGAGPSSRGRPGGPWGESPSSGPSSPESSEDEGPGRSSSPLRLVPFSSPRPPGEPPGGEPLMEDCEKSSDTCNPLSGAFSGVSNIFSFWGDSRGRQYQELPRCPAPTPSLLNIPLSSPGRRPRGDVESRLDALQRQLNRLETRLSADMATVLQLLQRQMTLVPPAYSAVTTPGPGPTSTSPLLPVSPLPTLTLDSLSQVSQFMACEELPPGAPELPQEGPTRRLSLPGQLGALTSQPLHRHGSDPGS

Structure (SMILES) | hERG current change (%, negative = inhibition) at 1uM [%]
CCOC(=O)N1CCN(CCC(=O)Nc2ccccc2OC)CC1 | 13.1
CCN(CC)CCNC(=O)COc1ccc(Cl)cc1Cl | -5.78
COc1cccc(N2CCN(C(=S)NCc3ccco3)CC2)c1 | -0.97
Cl.Oc1ccc(Nc2ncnc3scc(-c4ccccc4)c23)cc1 | 3.98
COc1ccc2[nH]c(=O)c(-c3nnn(-c4ccc(Cl)nc4)n3)cc2c1 | 16.5
Cc1cccc(NC(=O)CCS(=O)(=O)c2ccc3c(c2)NC(=O)CS3)n1 | 13.5
O=c1c2c(nc3cc(-c4ccccc4Cl)[nH]n13)CCS2 | 12.5
CC1=CC(C)(C)NC(=S)N1c1ccc(C)cc1 | 8.38
CN(C)S(=O)(=O)c1cc(NC(=O)Cn2ccsc2=N)ccc1Cl.Cl | -5.25
CCOC(=O)CNC(=S)N(CCCN1CCCCC1)Cc1cccs1 | -31.3
CNC(=O)C(=O)NCC1OCCCN1S(=O)(=O)c1ccc(F)cc1C (centres unmarked) | 12.2
COc1ccc2nc(SCC(=O)NN)cc(C)c2c1 | 5.82
CCOCCCNC(=O)CCN1C(=O)c2ccccc2Sc2ncccc21 | 12.9
CC(=O)Nc1cccc(OCC(=O)Nc2ccc(F)cc2)c1 | 1.52
CCOc1cc2c3c(c1)C1(C(=O)N3C(C)(C)CC2C)C(C#N)=C(N)N2C(=C1C#N)Nc1ccccc12 (centres unmarked) | 16.3
Cc1cc(C)c(S(=O)(=O)N2CCN(C(=O)CN3C(=O)NC4(CCCC4)C3=O)CC2)c(C)c1 | -1.96
CCN(CC)c1ccc(C(=O)NNC(=O)CN2C(=O)NC3(CCCCC3)C2=O)cc1 | 2
CC(C)CC(NC(N)=O)C(=O)NCCc1ccc(Cl)cc1 (centres unmarked) | 20.7
O=[N+]([O-])c1cccc(-n2cc3ccc([N+](=O)[O-])cc3n2)c1 | 10.2
CC(=O)COc1ccc2c(-c3ccccc3)cc(=O)oc2c1 | 9.38
O=C(NCCC1CCCC1)c1cccs1 | -0.073
COc1ccc(NC(=O)CN(C)C(=O)c2ccccc2OC)cc1 | 8.96
O=C(COc1ccc(S(=O)(=O)NC2CCCCC2)cc1)NC1CCCC1 | 9.05

Structure (SMILES) | hERG current change (%, negative = inhibition) at 1uM [%]
COc1ccc(C(=O)OCC(=O)c2ccc(C)c(S(=O)(=O)N3CCOCC3)c2)cc1OC | 2.21
N#Cc1ccc(-c2nc3cc(Cl)ccc3c(=O)n2O)cc1 | 8.33
CCOC(=O)c1c(-c2ccc(OC)cc2)oc2ccc(OCC(N)=O)cc12 | 15.2
COc1ccc(C2CC3(CC(C)(C)NC(=S)N3)Oc3cc(O)cc(C)c32)cc1OC (centres unmarked) | 15.9
CN1CCN(CCCNC(=O)Nc2cccc3ccccc23)CC1 | 5.94
CC(C)=C(C#N)c1nc2ccccc2s1 | 3.47
COc1ccc(NC(=O)Cn2c(NCC(C)O)nc3ccccc32)cc1Cl (centres unmarked) | 14.2
CCN(CC)S(=O)(=O)c1cccc(NC(=O)CNc2cccc(S(=O)(=O)N3CCCC3)c2)c1 | 11.4
CCOC(=O)C/C(N)=N/N(C)c1ncc(C(F)(F)F)cc1Cl | 15.6
O=C1CCc2cc(S(=O)(=O)NC(Cc3ccccc3)C(=O)NCCC3=CCCCC3)ccc2N1 (centres unmarked) | 11
COc1ccc(C(=O)O/N=C(\N)c2ccncc2)cc1OC | 10.4
Cc1cccc2sc(NC(=O)c3ccc(Cl)s3)nc12 | 6.44
CC(C)N1CCC(N2CCN(Cc3cccnc3)CC2CCO)CC1 (centres unmarked) | 4.23
Cc1cc(C)cc(NC2=CC(=O)CC(c3ccco3)C2)c1 (centres unmarked) | 14.5
CN(C)CCCNc1oc(/C=C/c2ccccc2)nc1C#N | -8.47
CCOC(=O)C1CCN(C(=O)c2ccc(Cl)c(NC3=NC4CS(=O)(=O)CC4S3)c2)CC1 (centres unmarked) | 12.8
CC(C)C[C@H](NC(=O)OC(C)(C)C)C(=O)N1CCC(C(=O)O)CC1 | 11.7
O=C(Nc1ccc2c(c1)OCCO2)C1CCN(C(=O)c2ccc(Cl)cc2)CC1 | 3.04
CNC(=O)CSc1nc2cc(S(=O)(=O)Nc3ccc(OC)cc3)ccc2o1 | 10
O=C(C1CC1)N1CCc2cc(Br)cc(S(=O)(=O)NCCN3CCOCC3)c21 | 2.16
O=C(CCc1nc2ccccc2c(=O)[nH]1)Nc1ccc(N2CCCCC2)cc1 | 3.38
CNc1nc(-c2ccc([N+](=O)[O-])cc2)cs1 | 5.3
C[C@H](NC(=O)c1ccc2ccccc2c1)C(=O)N1CCC2(CC1)NCCc1[nH]cnc12 | 12.7

Structure (SMILES) | hERG current change (%, negative = inhibition) at 1uM [%]
CCc1ccccc1NC(=O)CN1CCC(NC(=O)COC)CC1.Cl | 17.6
COc1ccccc1C(=O)Nc1ccc2c(c1)nc(CCNC(C)=O)n2C | 14.6
CCc1c(-c2ccccc2)nc(N)c(C#N)c1-c1cccs1 | 6.32
COc1cc(/C=C/C(=O)OCC(=O)Nc2sc3c(c2C#N)CCC(C)C3)ccc1OCC#N (centres unmarked) | 8.42
COc1ccc(/C=N/NC(=O)c2ccn[nH]2)cc1COc1ccc([N+](=O)[O-])c(C)c1 | 14.4
Cc1cc(=O)[nH]c(SCC(=O)Nc2ccccc2C#N)c1C#N | 11.9
CCN(CC)CCN(Cc1cc2cc3c(cc2[nH]c1=O)OCCO3)C(=O)NC1CCCCC1 | -2.85
COc1ccccc1-c1cc(C(=O)NCCCn2ccnc2)no1 | -2.43
O=c1[nH]c(SCc2cccc(Cl)c2)nc2c1CCCC2 | 1.9
COc1ccc(S(=O)(=O)Nc2ccc(-c3ccc(N4CCCC4)nn3)cc2)cc1C | 11.6
C=CCOC(=O)C1=C[C@@H](c2cn(C(C)=O)c3ccccc23)C[C@@H](OCc2ccc(CO)cc2)O1 | -14.1
CCOc1ccccc1N1CCN(C(=S)NCc2ccc(Cl)cc2)CC1 | 8.75
Cc1ccc(C)c(C(=O)Nc2ccncc2)c1 | 12.4
COCCNC(=O)Nc1ccc2c(c1)N(C)C(=O)c1ccccc1S2 | 7.57
CCS(=O)(=O)C1=NN2C(=N)/C(=C\c3ccc(OS(=O)(=O)c4ccccc4)c(OC)c3)C(=O)N=C2S1 | 16.5
COc1ccc(C(CC(=O)O)NS(=O)(=O)c2ccc3c(c2)NC(=O)CO3)cc1 (centres unmarked) | 12.1
CC1(N2CCCCC2)CC2(O)C(=[N+]1[O-])CCC/C2=N\O (centres unmarked) | 6.49
Oc1ccc(C=Nc2cccc3ncccc23)c(O)c1 | 6.61
COc1ccc(S(=O)(=O)Nc2nc3ccccc3nc2Nc2ccc3c(c2)OCO3)cc1 | 9.69
CCC1CCCCN1S(=O)(=O)Cc1ccccc1Cl (centres unmarked) | 9.58
COc1ccc(-c2cc(C(=O)N3CCCCCC3)c3cc(C)ccc3n2)cc1 | 23.4
COc1ccccc1N1CCNCC1.Cl | 17.2
Cc1ccc(NC(=O)C2CCN(C(=O)c3ccco3)CC2)cc1 | 12.8

Structure (SMILES) | hERG current change (%, negative = inhibition) at 1uM [%]
O=C(CN1CCc2cc3c(cc2C1)OCCCO3)Nc1c(F)cccc1F | 8.46
CCCCCOc1ccc(C2NC(=O)NC2=O)cc1 (centres unmarked) | 3.89
COc1ccc(C2=NCc3nnc(C)n3-c3ccc(Cl)cc32)cc1Cl | 4.72
CCCN(CCC)CCCNC(=O)C1c2cc(OC)c(OC)cc2C(=O)N(C)C1c1cccnc1 (centres unmarked) | 14.2
CN1C(=O)c2ccccc2Sc2ccc(C(=O)N3CCC4(CC3)OCCO4)cc21 | 1.09
COc1ccc(C(=O)NCCS(=O)(=O)N2CCN(Cc3ccccc3)CC2)cc1 | 11.9
Cc1ccc(Nc2nc(N3CCOCC3)nc(N3CCOCC3)n2)cc1C.Cl | 7.46
CN(CCNC(=O)Cn1c(=O)sc2ccccc21)Cc1ccccc1 | -2.68
COc1ccccc1-c1nc(C#N)c(N2CCC(Cc3ccccc3)CC2)o1 | -1.64
CC(C)(C)C(=O)CN1CCN(S(=O)(=O)c2ccc(F)cc2)CC1 | 14.2
Cc1cc(C)c(S(=O)(=O)N2CCC(C(=O)NCc3ccco3)CC2)c(C)c1 | -1.13
CCCCC1(C)OC(=O)C(=Cc2ccc(N(CC)CC)cc2)C(=O)O1 (centres unmarked) | 8.29
CCOc1ccc(CCNC(=O)C2(c3ccccc3)CC2)cc1OCC | 14.6
Cc1cccc(NC(=O)CN2CCN(C(=O)c3cncn3-c3ccc(F)cc3)CC2)c1C | -22.2
O=C(NC1CCCCC1)c1ccccc1NC(=O)C1CC(=O)N(c2ccccc2)C1 (centres unmarked) | -64.3
CCOC(=O)C1(Cc2ccc(OC)cc2)CCN(C(=O)CCN2CCCC2=O)CC1 | 13.1
O=C(NCCc1ccccc1)c1ccc(=O)oc1 | 8.3
Cc1cccc(N2CCN(C(=O)c3cccc(N4CCCC4=O)c3)C(C)C2)c1 (centres unmarked) | 12.3
Cc1cc(=O)n2nc(N3CCCC(C(=O)NCCC4=CCCCC4)C3)sc2n1 (centres unmarked) | -4.44
CCOC(=O)c1sc(NC(=O)CSC(=S)N2CCN(C)CC2)nc1C | 0.0501

Reference: article PMC4336329 (PLoS ONE, 2015)
